Laboratory results published in a collection of fitness landscapes (doi:10.1016/j.celrep.2020.107928).
Whole data set: some 81,000 sequences, median “one-hybrid fitness for binding parS DNA” near -0.17, cut for the highest 2% near 0.51. The list shows a part of the results.

B1: Caulobacter ParB omega fusion; a variant is named by its letters at X, in order, B8GW30 (parent)
chain: MESVVVGEPGMSEGRRGLGRGLSALLGEVDAAPAQAPGEQLGGSREAPIEILQRNPDQPRRTFREEDLEDLSNSIREKGVLQPILVRPSPDTAGEYQIVAGERAWRAAQRAGLKTVPIMVRELDDLAVLEIGIIENVQRADLNVLEEALSYKVLMEKFERTQENIAQTIGKSXSHVANXMRLLXLPDEVQSYLVSGELTAXHARAIAAAADPVALAKQIIEGGLSVRETEALARKAPNLSAGKSKGGRPPRVKDTDTQALESDLSSVLGLDVSIDHRGSTGTLTITYATLEQLDDLCNRLTRGI

Variants of: B1
Experiment: one-hybrid fitness for binding parS DNA (scaled: cognate 1, non-cognate 0); higher = stronger binding
Settings: with parS DNA site
Outline: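 Fitness here means the log change in variant-to-wild-type read ratio between plasmids sequenced before and after selection. That scale was set so cognate equals 1 and non-cognate equals 0. The selection was a bacterial one-hybrid screen of Caulobacter ParB libraries, four specificity codons randomised, in E. coli USO carrying a HIS3 reporter with the site 19 bp from the promoter, grown 48 hours at 37°C on M9-minus-histidine with 0.1 mM IPTG and 5 mM 3-AT.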

| Variant | one-hybrid fitness for binding parS DNA |
| --- | --- |
| ATFL | ≤ 0.2 |
| RMWH | 0.231 |
| LAAL | ≤ 0.2 |
| SIHM | ≤ 0.2 |
| RDQY | ≤ 0.2 |
| KCHR | ≤ 0.2 |
| GMSS | ≤ 0.2 |
| PCHF | ≤ 0.2 |
| RRSC | 0.596 |
| TIVR | ≤ 0.2 |
| CTMG | ≤ 0.2 |
| DNAS | ≤ 0.2 |
| SRAR | ≤ 0.2 |
| PFQS | ≤ 0.2 |
| VAVL | ≤ 0.2 |
| ASYE | ≤ 0.2 |
| VFIS | ≤ 0.2 |
| YSFT | ≤ 0.2 |
| FAYY | ≤ 0.2 |
| QLIR | ≤ 0.2 |
| DQTI | ≤ 0.2 |
| EIQV | ≤ 0.2 |
| KWVW | ≤ 0.2 |
| MINS | ≤ 0.2 |
| SVIM | ≤ 0.2 |

| Variant | one-hybrid fitness for binding parS DNA |
| --- | --- |
| FPFG | ≤ 0.2 |
| DRTR | ≤ 0.2 |
| RPHY | ≤ 0.2 |
| QLIL | ≤ 0.2 |
| YSHA | ≤ 0.2 |
| DQCS | ≤ 0.2 |
| TGPQ | ≤ 0.2 |
| GEFN | 0.205 |
| IEVS | ≤ 0.2 |
| PCVF | ≤ 0.2 |
| NPLG | ≤ 0.2 |
| IIDG | ≤ 0.2 |
| FATT | ≤ 0.2 |
| LMCG | ≤ 0.2 |
| PWLD | ≤ 0.2 |
| KATI | ≤ 0.2 |
| GLRT | ≤ 0.2 |
| CVTF | ≤ 0.2 |
| HNEA | ≤ 0.2 |
| CCTS | ≤ 0.2 |
| KPHR | ≤ 0.2 |
| LISL | ≤ 0.2 |
| LIDG | ≤ 0.2 |
| PCPR | ≤ 0.2 |
| PAQG | ≤ 0.2 |

| Variant | one-hybrid fitness for binding parS DNA |
| --- | --- |
| LDLG | ≤ 0.2 |
| QCHE | ≤ 0.2 |
| TFLA | ≤ 0.2 |
| LKDT | ≤ 0.2 |
| NCKE | ≤ 0.2 |
| NGDR | ≤ 0.2 |
| CWRR | ≤ 0.2 |
| QGKK | ≤ 0.2 |
| NLIM | ≤ 0.2 |
| RGWR | ≤ 0.2 |
| QFAP | ≤ 0.2 |
| PDLW | ≤ 0.2 |
| FDYR | ≤ 0.2 |
| GVIS | ≤ 0.2 |
| RCDT | 0.813 |
| RYAT | 0.899 |
| NTAR | ≤ 0.2 |
| ACMV | ≤ 0.2 |
| GGWR | ≤ 0.2 |
| YYGR | ≤ 0.2 |
| CHLD | ≤ 0.2 |
| NSFW | ≤ 0.2 |
| WPIR | ≤ 0.2 |
| TIHH | ≤ 0.2 |
| PEMN | ≤ 0.2 |

| Variant | one-hybrid fitness for binding parS DNA |
| --- | --- |
| MCCR | ≤ 0.2 |
| RWKY | 0.565 |
| CQLC | ≤ 0.2 |
| PTIT | ≤ 0.2 |
| EDNC | ≤ 0.2 |
| QDRL | ≤ 0.2 |
| AQGK | ≤ 0.2 |
| TWTQ | ≤ 0.2 |
| NSQG | ≤ 0.2 |
| IKWD | ≤ 0.2 |
| VRMT | ≤ 0.2 |
| PNST | ≤ 0.2 |
| VFLT | ≤ 0.2 |
| PEKF | ≤ 0.2 |
| LITS | ≤ 0.2 |
| TLTD | ≤ 0.2 |
| GLHL | ≤ 0.2 |
| SKKT | ≤ 0.2 |
| RCYV | ≤ 0.2 |
| LALF | ≤ 0.2 |
| RQTM | 0.331 |
| NQAC | ≤ 0.2 |
| SMMI | ≤ 0.2 |
| TPHK | ≤ 0.2 |
| WNAW | ≤ 0.2 |

| Variant | one-hybrid fitness for binding parS DNA |
| --- | --- |
| PKDF | ≤ 0.2 |
| HDCI | ≤ 0.2 |
| YQDT | ≤ 0.2 |
| RWDK | ≤ 0.2 |
| RRAT | 0.562 |
| NSTQ | ≤ 0.2 |
| ANAS | ≤ 0.2 |
| QKDT | ≤ 0.2 |
| DVWR | ≤ 0.2 |
| TSCG | ≤ 0.2 |
| YNTH | ≤ 0.2 |
| ANRS | ≤ 0.2 |
| IALG | ≤ 0.2 |
| YERR | ≤ 0.2 |
| IAWG | ≤ 0.2 |
| WCAG | ≤ 0.2 |
| EDHR | ≤ 0.2 |
| PSYF | ≤ 0.2 |
| QYSS | ≤ 0.2 |
| IRTS | ≤ 0.2 |
| DVCT | ≤ 0.2 |
| PAYN | ≤ 0.2 |
| VGIN | ≤ 0.2 |
| PRTS | ≤ 0.2 |
| QTPR | ≤ 0.2 |

| Variant | one-hybrid fitness for binding parS DNA |
| --- | --- |
| KYLG | ≤ 0.2 |
| APNT | ≤ 0.2 |
| LTDG | ≤ 0.2 |
| PYDH | ≤ 0.2 |
| NNIS | ≤ 0.2 |
| GMPW | ≤ 0.2 |
| DDHL | ≤ 0.2 |
| HPSS | ≤ 0.2 |
| HMRA | ≤ 0.2 |
| WWLL | ≤ 0.2 |
| YSVP | 0.319 |
| VGIR | ≤ 0.2 |
| QSDE | ≤ 0.2 |
| ASCY | ≤ 0.2 |
| DVVH | ≤ 0.2 |
| REKY | ≤ 0.2 |
| TLCR | ≤ 0.2 |
| ASRG | ≤ 0.2 |
| HWCG | ≤ 0.2 |
| FRTM | ≤ 0.2 |
| PDNG | ≤ 0.2 |
| WMPS | ≤ 0.2 |
| PDPS | ≤ 0.2 |
| CISR | ≤ 0.2 |
| KWNR | ≤ 0.2 |

| Variant | one-hybrid fitness for binding parS DNA |
| --- | --- |
| RLEE | ≤ 0.2 |
| IAIG | ≤ 0.2 |
| QILT | ≤ 0.2 |
| HMMG | ≤ 0.2 |
| VVQC | ≤ 0.2 |
| NRTS | ≤ 0.2 |
| APCG | ≤ 0.2 |
| GHWE | ≤ 0.2 |
| HLTE | ≤ 0.2 |
| AHRA | ≤ 0.2 |
| RPSA | ≤ 0.2 |
| PRNK | ≤ 0.2 |
| IHVT | ≤ 0.2 |
| RGHG | 0.65 |
| CVSS | ≤ 0.2 |
| ARAN | ≤ 0.2 |
| DHLA | ≤ 0.2 |
| ARRM | ≤ 0.2 |
| EREG | ≤ 0.2 |
| AIPT | ≤ 0.2 |
| FHYS | ≤ 0.2 |
| RRRP | 0.203 |
| SQPN | ≤ 0.2 |
| FRAS | ≤ 0.2 |
| SPVT | ≤ 0.2 |

| Variant | one-hybrid fitness for binding parS DNA |
| --- | --- |
| MHVL | ≤ 0.2 |
| QLAE | ≤ 0.2 |
| PHTG | ≤ 0.2 |
| AAHA | ≤ 0.2 |
| GGED | ≤ 0.2 |
| LREG | ≤ 0.2 |
| MTGF | ≤ 0.2 |
| CGKS | ≤ 0.2 |
| NGVG | ≤ 0.2 |
| NHCS | ≤ 0.2 |
| LNKI | ≤ 0.2 |
| VSMY | ≤ 0.2 |
| VRYL | ≤ 0.2 |
| QFPD | ≤ 0.2 |
| GGHC | ≤ 0.2 |
| VKRL | ≤ 0.2 |
| NWCG | ≤ 0.2 |
| NANL | ≤ 0.2 |
| IVLG | ≤ 0.2 |
| LNGD | ≤ 0.2 |
